# According to PMC4336329 (PLoS ONE, 2015):
# Hit rate of the full screen: of about 310,000 compounds, about 2,200 (0.71%) showed an effect of 50% or more. The effect is printed as a negative number. Some of the results follow.
# Biological target: human ether-à-go-go-related gene (hERG) potassium channel (human, UniProt Q12809)
# Assay: primary screen, population patch clamp on CHO cells stably expressing hERG
# human ether-à-go-go-related gene (hERG) potassium channel, sequence (Q12809 whole entry, looked up): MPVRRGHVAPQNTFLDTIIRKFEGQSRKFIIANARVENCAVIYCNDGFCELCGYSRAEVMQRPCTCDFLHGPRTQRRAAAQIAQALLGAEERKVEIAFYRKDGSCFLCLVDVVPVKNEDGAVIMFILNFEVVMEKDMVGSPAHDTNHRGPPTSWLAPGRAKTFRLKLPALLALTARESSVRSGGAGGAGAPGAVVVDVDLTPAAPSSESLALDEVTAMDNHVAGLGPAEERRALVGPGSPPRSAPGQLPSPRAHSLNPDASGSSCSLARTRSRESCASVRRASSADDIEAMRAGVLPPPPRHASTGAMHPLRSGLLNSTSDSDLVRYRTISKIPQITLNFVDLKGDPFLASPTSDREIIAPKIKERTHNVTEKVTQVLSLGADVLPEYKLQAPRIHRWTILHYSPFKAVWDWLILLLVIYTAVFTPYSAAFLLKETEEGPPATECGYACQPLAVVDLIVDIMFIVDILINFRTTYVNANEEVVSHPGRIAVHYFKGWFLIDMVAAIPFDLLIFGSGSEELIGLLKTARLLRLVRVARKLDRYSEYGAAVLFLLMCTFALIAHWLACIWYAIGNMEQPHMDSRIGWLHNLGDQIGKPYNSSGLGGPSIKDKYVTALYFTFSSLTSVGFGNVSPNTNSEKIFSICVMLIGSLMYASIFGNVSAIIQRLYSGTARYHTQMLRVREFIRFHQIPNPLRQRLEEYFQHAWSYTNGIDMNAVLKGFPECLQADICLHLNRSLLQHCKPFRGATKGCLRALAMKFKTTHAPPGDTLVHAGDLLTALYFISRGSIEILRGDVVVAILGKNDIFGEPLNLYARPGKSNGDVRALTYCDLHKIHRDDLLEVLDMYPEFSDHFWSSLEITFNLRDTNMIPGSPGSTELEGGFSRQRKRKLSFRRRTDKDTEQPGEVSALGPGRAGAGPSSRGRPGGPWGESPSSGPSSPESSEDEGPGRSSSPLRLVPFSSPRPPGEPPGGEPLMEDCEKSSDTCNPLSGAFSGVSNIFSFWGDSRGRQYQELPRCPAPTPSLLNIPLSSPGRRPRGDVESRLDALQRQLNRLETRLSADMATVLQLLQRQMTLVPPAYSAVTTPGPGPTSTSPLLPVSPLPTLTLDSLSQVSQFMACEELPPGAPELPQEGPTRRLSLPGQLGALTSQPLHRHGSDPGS
row,Compound,"hERG current change (%, negative = inhibition) at 1uM [%]"
1,O=C(C1CCN(S(=O)(=O)N2CCOCC2)CC1)N1CCN(c2ccccc2F)CC1,13.2
2,Cc1cc(C)c(C(=O)Nc2ccccc2)c(CC(C)(C)C(=O)O)c1,14.6
3,COc1ccc(-n2ncc3c(=O)n(CC(=O)Nc4ccc5c(c4)OCCO5)cnc32)cc1,21.5
4,Cc1cc(NC(=O)C2CCCN2C(=O)Nc2cccc(Cl)c2)ccc1-n1cnnn1 (stereo not shown),0.706
5,Cn1c(=O)c2c(nc(Br)n2Cc2ccc3ccccc3c2)n(C)c1=O,5.83
6,Cc1ccc(S(=O)(=O)c2c(N)n(Cc3ccco3)c3nc4ccccc4nc23)cc1,6.22
7,CC(=O)NC(Cc1ccc(F)cc1)C(=O)NC1CCN(S(=O)(=O)c2ccccc2)CC1 (stereo not shown),11
8,Cc1cc(F)ccc1NC(=O)c1cccnc1,-4.47
9,Cc1ccc(N=C2N=C(N)c3ccccc32)c(C)c1,0.355
10,O=C(Nc1ccccc1C(=O)NC(Cc1ccc(O)cc1)C(=O)O)c1ccccc1 (stereo not shown),7.5
11,CCOC(=O)c1cnc2ccc(OCC)cc2c1NCc1ccccc1,-12.8
12,COc1ccc2nc(NC3=NC(c4ccccc4)CC(=O)N3)nc(C)c2c1 (stereo not shown),-0.781
13,Cc1ccc(S(=O)(=O)NCC(=O)N/N=C/c2ccc(Cl)cc2Cl)cc1,10
14,CCOc1ccc(CCNS(=O)(=O)c2ccc3c(c2)NC(=O)CO3)cc1OCC,-4.15
15,Cc1cc(OCc2nnc(SC(C)C(=O)O)n2-c2ccccc2)ccc1Cl (stereo not shown),15.5
16,Cc1cc(C(=O)NCc2cc(F)cc3c2OCOC3)nn1C,9.31
17,Cc1ccccc1OCC1Cc2c(nc(N)c(C#N)c2N)O1 (stereo not shown),2.98
18,CCN(CC)c1cc(C)c(C#N)c2nc3ccccc3n12,9.95
19,Cc1ccc(OCCNCC(O)COc2ccccc2)cc1.O=C(O)C(=O)O (stereo not shown),5.43
20,COc1cc(CCC(=O)Nc2cccc(C(F)(F)F)c2)cc(OC)c1OC,4.62
21,CNC(=O)Nc1cc(NC(=O)NC)cc(C(F)(F)F)c1,7.76
22,Cn1cc(Br)c(C(=O)NNC(=O)c2ccc(Cl)cc2)n1,2.2
23,COc1ccc(Cl)cc1NC(=O)C1Cc2ccccc2CN1S(C)(=O)=O (stereo not shown),16.6
24,CC1CC(C)CN(CCCNC(=O)Cn2ncc3c([nH]c4ccccc43)c2=O)C1 (stereo not shown),-1.27
25,COc1cccc(N2CCN(C(=O)c3oc4ccccc4c3NC(=O)Cc3ccc(OC)c(OC)c3)CC2)c1,13.3
26,CCCOC(=O)c1ccc(Oc2cn[nH]c2-c2ccc(OCC)cc2O)cc1,11.1
27,Cc1nc(CNC(=O)CC2C(=O)NCCN2Cc2ccoc2)nc2c1CCCC2 (stereo not shown),11.8
28,O=C(Cc1c[nH]c2ccccc12)OCC(=O)c1ccccc1,16.5

row,Compound,"hERG current change (%, negative = inhibition) at 1uM [%]"
1,O=C(COC(=O)Cn1cnc2ccccc21)Nc1cc(S(=O)(=O)N2CCOCC2)ccc1Cl,11.1
2,Cc1ccc(CSc2nnc(-c3ccc(S(=O)(=O)N4CCCC4)cc3)o2)cc1,6.97
3,O=C(COC(=O)C1(c2ccc(F)cc2)CCCC1)NCc1ccc2c(c1)OCO2,-3.4
4,Cc1nn(-c2ccccc2)cc1/C=N/NC(=O)c1cccs1,9.49
5,CNC(=O)C1CCN(S(=O)(=O)c2c(C)noc2/C=C/c2ccc(C)cc2)CC1,10.2
6,Cl.O=C(Nc1ncccc1Cl)c1ccc2c(c1)OCCO2,10
7,CCOC(=O)C1=C(CN2CCc3ccccc32)NC(=O)NC1c1cccc([N+](=O)[O-])c1 (stereo not shown),2.39
8,Cc1ccc(-c2ccc(/C=N/NC(N)=S)o2)cc1,-23.3
9,Cc1cccc(C)c1NC(=O)C(C)c1ccc(-c2ccccc2)c(F)c1 (stereo not shown),19.2
10,Cc1[nH]n(C(N)=S)c(=O)c1N=Nc1cc(-c2ccc(Br)cc2)[nH]n1,16
11,CCOC(=O)C1(Cc2cccc(F)c2)CCN(C(=O)Cc2cccnc2)CC1,6.69
12,COc1ccc(CNC(=O)C2CCCN(S(=O)(=O)c3ccccc3)C2)cc1 (stereo not shown),13.1
13,COc1ccc(C(CNC(=O)COc2ccc([N+](=O)[O-])cc2)N2CCCCC2)cc1 (stereo not shown),-52.1
14,CCCCc1nn(-c2cc(Cl)ccc2OC)c2c1C(=O)CC(C)(C)C2,-13
15,CNc1nccc(-c2ccc(F)cc2)c1C#N,7.91
16,O=C(Nc1ccc(Cl)cc1)OC(CN1CCCCC1)C(F)(F)F (stereo not shown),6.47
17,Cc1ccc(S(=O)(=O)N(C)c2ccc(C(=O)Nc3c(C)n(C)n(-c4ccccc4)c3=O)cc2)cc1,4.15
18,COc1cc(NC(=O)c2cccs2)c(OC)cc1NC(=O)CCC(=O)Nc1ccc(C)cc1,-1.36
19,O=C1NC(=Nc2cccc(O)c2)S/C1=C\c1cccnc1,10.7
20,Cc1ccc(C)c(N)c1,7.96
21,O=C(Nc1cc(C(F)(F)F)ccc1N1CCOCC1)c1cn2ccccc2n1,2.85
22,CCOc1ccc2nc(SC(CC)C(=O)Nc3cc(C)on3)sc2c1 (stereo not shown),19.8
23,O=C(CNC(=O)c1cccs1)c1ccc([N+](=O)[O-])cc1,4.29
24,CC/C(=N\NC(=O)c1ccc(Br)cc1)c1ccccc1,12.6
25,CCOC(=O)CSc1ccc2nnc(-c3ccccc3)n2n1,-3.16
26,COc1ccc(N2CCN(C(=O)COC(=O)c3cccc(S(=O)(=O)Nc4ccccc4OC)c3)CC2)cc1,-17.8
27,Cc1cc(CNC(=O)COc2ccc(F)cc2)c2ccccc2n1,10.6
